These results are taken from publication PMC4170737 (Bioorganic & medicinal chemistry letters, 2014).

The target of this experiment is T1, ectonucleotide pyrophosphatase/phosphodiesterase-1 (NPP-1) (Homo sapiens, UniProt P22413).
T1 sequence (P22413 1-925): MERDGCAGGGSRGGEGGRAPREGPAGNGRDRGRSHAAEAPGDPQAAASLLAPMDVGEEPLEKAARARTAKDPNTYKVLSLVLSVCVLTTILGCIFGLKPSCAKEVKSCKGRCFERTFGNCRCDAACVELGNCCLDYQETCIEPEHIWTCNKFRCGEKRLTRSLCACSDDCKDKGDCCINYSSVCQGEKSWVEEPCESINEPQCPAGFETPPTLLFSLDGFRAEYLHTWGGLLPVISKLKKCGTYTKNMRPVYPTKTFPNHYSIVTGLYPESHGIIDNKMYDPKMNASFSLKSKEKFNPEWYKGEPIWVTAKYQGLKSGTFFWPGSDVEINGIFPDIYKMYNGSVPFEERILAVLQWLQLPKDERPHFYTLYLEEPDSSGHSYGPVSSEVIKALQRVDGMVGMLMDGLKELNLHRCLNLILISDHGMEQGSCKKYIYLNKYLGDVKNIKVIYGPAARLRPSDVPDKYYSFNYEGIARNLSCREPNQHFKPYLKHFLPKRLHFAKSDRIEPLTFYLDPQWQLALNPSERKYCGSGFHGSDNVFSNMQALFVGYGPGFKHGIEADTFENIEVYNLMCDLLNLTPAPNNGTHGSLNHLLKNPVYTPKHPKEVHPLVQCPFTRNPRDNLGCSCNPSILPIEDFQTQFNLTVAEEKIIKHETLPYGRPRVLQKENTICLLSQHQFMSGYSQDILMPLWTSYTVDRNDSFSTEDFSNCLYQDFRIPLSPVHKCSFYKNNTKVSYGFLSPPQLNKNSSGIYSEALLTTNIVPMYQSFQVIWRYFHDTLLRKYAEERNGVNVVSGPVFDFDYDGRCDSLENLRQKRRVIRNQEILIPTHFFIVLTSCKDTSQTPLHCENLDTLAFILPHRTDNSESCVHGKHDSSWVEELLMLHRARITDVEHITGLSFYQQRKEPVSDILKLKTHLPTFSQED

Molecules are shown by their SMILES.

On to `CN(C)C(=O)c1cccc(-n2sc3ccccc3c2=O)c1` [Compound 2q], for which the “Inhibitory activity against NPP-1 (in words)” value is reported as “devoid of any significant inhibitory activity”.
